These are yes or no findings as the source states them, for the method shown. Binding seen in cells or lysates may run through a third protein. Some binding calls cover weakened binding; strength is not graded here. Tags and fused reporters may be left off the sequences shown.
Key:
[1] = target: T1, V5-CDK12 (Drosophila cyclin-dependent kinase 12 with N-terminal V5 tag) (Drosophila melanogaster) (UniProt Q9VP22); assay: co-IP; Lysates of S2 cells co-expressing V5-CDK12 and B2-GFP pretreated with RNase A before co-IP with anti-V5; western blot
T1 sequence: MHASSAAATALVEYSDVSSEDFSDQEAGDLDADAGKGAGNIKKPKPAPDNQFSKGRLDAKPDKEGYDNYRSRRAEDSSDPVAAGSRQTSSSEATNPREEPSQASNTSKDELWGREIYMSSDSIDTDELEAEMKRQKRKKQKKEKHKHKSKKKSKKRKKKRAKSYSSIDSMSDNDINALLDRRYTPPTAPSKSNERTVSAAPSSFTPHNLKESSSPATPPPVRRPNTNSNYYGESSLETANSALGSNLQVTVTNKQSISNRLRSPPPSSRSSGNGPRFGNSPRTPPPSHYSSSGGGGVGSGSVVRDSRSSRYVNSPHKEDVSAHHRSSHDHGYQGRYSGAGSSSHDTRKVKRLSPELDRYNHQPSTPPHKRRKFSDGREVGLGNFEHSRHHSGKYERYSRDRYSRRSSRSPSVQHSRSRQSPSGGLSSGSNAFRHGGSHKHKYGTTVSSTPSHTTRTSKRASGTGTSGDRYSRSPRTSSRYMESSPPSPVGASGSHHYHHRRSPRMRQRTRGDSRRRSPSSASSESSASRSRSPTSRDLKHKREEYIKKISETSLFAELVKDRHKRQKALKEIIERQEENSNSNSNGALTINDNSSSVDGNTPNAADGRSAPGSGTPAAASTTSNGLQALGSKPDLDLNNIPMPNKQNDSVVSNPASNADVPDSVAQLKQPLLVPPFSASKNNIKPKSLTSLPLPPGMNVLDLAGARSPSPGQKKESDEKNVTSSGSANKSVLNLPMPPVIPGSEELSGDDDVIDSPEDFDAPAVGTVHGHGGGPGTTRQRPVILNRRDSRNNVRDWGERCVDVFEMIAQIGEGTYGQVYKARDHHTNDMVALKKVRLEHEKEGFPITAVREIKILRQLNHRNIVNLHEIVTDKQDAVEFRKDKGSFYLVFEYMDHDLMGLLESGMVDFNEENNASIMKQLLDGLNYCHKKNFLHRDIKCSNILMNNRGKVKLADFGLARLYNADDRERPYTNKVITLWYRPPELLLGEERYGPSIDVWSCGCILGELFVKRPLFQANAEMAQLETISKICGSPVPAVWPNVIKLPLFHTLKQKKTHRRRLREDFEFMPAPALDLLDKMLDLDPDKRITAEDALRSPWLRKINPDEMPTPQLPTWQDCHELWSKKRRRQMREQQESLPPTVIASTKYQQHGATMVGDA

[2] = target: T1, V5-CDK12 (Drosophila cyclin-dependent kinase 12 with N-terminal V5 tag) (Drosophila melanogaster); assay: co-IP; S2 cells co-transfected with pMT-V5-CDK12 and B2-GFP, GFP or GFP-tagged B2 mutants; RIPA buffer (50 mM Tris-HCl pH 7.4, 150 mM NaCl, 5 mM MgCl2, 1 mM EDTA, 10% glycerol, 1% NP-40); anti-V5 or anti-GFP on protein A agarose, 4°C overnight; western blot

| Substance | binding [1] | binding [2] |
| --- | --- | --- |
| B2-GFP (FHV B2 with GFP fused to its C-terminus) (from UniProt P68831 1-106) | binds | binds |
| B2-mutant1-GFP (B2 with mutations in key dimerization sites K4A, E20A, D29A) (from UniProt P68831 1-106) |  | no binding |
| B2-mutant3-GFP (B2 lacking the C-terminal 17 amino acids, ΔC17) (from UniProt P68831 1-89) (domain or fragment) |  | binds |

Source: article PMC11708023
